# Assay results taken from PMC6919601, “Identification of Plasmodium dipeptidyl aminopeptidase allosteric inhibitors by high throughput screening” (PLoS ONE, 2019).
# Values joined by “and” are separate entries in the source; they are usually repeats but may differ in a detail not shown here. Equal entries are not always repeated. Hit rate of the full screen: of about 110,000 compounds, about 230 (0.21%) showed an effect of 50% or more. Some of the results follow.
# Biological target: DPAP1 (Plasmodium falciparum, UniProt Q8IIJ9)
# Sequence (Q8IIJ9 whole entry, looked up): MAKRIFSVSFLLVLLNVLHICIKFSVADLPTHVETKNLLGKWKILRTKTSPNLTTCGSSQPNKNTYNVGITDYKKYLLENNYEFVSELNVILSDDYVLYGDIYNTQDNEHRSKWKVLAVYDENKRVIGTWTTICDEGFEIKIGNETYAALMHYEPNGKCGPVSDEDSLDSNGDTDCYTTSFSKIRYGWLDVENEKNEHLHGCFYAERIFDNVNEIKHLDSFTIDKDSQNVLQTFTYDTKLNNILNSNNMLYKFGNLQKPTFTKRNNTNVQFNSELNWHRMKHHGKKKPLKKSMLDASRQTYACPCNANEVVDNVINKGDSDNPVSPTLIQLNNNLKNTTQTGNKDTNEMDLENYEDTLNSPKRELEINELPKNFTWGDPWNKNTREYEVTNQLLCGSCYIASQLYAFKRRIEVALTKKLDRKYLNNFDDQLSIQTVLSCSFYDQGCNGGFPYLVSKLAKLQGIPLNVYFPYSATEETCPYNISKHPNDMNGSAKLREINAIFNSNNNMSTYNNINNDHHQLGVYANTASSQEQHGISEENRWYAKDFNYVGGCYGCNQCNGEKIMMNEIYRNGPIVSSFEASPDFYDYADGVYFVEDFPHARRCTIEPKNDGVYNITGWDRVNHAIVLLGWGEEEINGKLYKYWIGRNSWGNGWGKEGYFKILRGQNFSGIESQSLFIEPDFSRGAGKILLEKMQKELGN
# Assay: primary screen, percent inhibition; read by cleavage of a fluorogenic dipeptide substrate; higher = more effect of the substance
# Design: species or system P. falciparum D10 trophozoite lysates; single well
# 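Note: 30 min substrate incubation versus DMSO and 10 µM JCP410 controls.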
row,SMILES,% Inhibition @ 10 uM
1,COc1ccc(Br)cc1CNCc1cccs1,2.02%
2,CCN(CC)S(=O)(=O)c1nnc(NC(=O)COc2ccc(OC)cc2)s1,-3.51%
3,COc1ccc2c(c1OC)C(=O)N(c1cccc(F)c1)C2,-2.03%
4,COCCCNC(=O)C1Sc2nnc(C)n2NC1c1ccccc1 (stereo not shown),-3.53%
5,CC1=[N+]([O-])C(C)(C)C(c2ccc(Cl)cc2)=[N+]1[O-],-7.23%
6,Cc1ccc(C2C(C#N)=C(N)Oc3cc(N)ccc32)cc1 (stereo not shown),-4.76%
7,CC(=O)Nc1sc2c(c1C(=O)Nc1cccc3ccccc13)CCC(C)C2 (stereo not shown),1.67%
8,COC(=O)c1sccc1NC(=O)Cn1c(-c2nonc2N)nc2ccccc21,0.0289%
9,COc1cccc(NC(=O)CN(c2cc(OC)ccc2OC)S(C)(=O)=O)c1,1.92% and -1.37%
10,CN1C(=O)/C(=C\c2cccc(OC(=O)c3ccco3)c2)SC1=S,-0.582%
11,CC(=O)N/C(=C\c1ccccc1)C(=O)NC(CCC(=O)O)C(=O)O (stereo not shown),2.38%
12,COc1ccc(CC(=O)N2CCN(c3ccc(F)cc3)CC2)cc1,4.22%
13,C=CCOc1cccc(/C=C2/Sc3ccccc3C2=O)c1,-0.996%
14,CCc1nnc(SCC(=O)NCc2ccc(C)cc2)c2cc3sccc3n12,-0.232%
15,Cc1cc(C)n(-c2cc(N3CCOCC3)nc(C)n2)n1,5.73%
16,COCCCNC(=O)c1cc2c(s1)-c1ccc(Cl)cc1SC2,-0.72%
17,Fc1ccccc1OCCCCN1CCOCC1,-2.12%
18,COc1cccc(-n2c(SCC(=O)NC3CCCCC3)nc3nnc(C)c-3c2N)c1,4.35%
19,Nc1ccc(-c2cc(-c3ccccc3)nc(-c3ccc(N)cc3)n2)cc1,-1.74%
20,O=C(CSc1nnc(-c2cccnc2)n1Cc1ccccc1)c1c[nH]c2ccccc12,-3.21%
21,CC(C)(C)c1ccc(S(=O)(=O)NCc2ccc(C(=O)Nc3cccnc3)cc2)cc1,4.11%
22,O=[N+]([O-])c1ccc(/C=C/c2nnnn2-c2ccc([N+](=O)[O-])cc2)cc1,-2.03%
23,CCCCC(=O)Nc1ccc(OCC)cc1,2.5%
24,COc1ccc(CCNC(=O)c2cn(C)c(=O)c3cc(OC)c(OC)cc23)cc1OC,-2.49%
25,CCOC(=O)c1oc2ccccc2c1NC(=O)C1c2ccccc2Oc2ccccc21,-4.69%
26,Cc1cc(NC(=O)CCCc2c[nH]c3ccccc23)no1,1.88%
27,Cc1ccc2[nH]c(SCC(=O)NC3CCCCC3)nc2c1,1.87%
28,CC(=O)/N=C(\Nc1nc(C)cc(C)n1)Nc1ccc(Cl)cc1Cl,-5.66%
